Laboratory results from patent US20240400654A1.
Positions count from the first letter of the chain named. Numbers in names are those of the source. Not every entry of the source has a single result; some have several. The other results are left out here. An entry can have further records. Results that share an entry seem to repeat one measurement; one of them may be the mean.

What was measured:
[1] = target: HRgpA-6H (Porphyromonas gingivalis) (UniProt P28784); assay: ELISA, FASEBA Fab supernatant on coated HRgpA-6H
[2] = target: HRgpA-6H (Porphyromonas gingivalis) (UniProt P28784); assay: ELISA on coated HRgpA-6H, OD relative to parental Fab
[3] = target: HRgpA-6H (Porphyromonas gingivalis) (UniProt P28784); assay: ELISA, coated HRgpA-6H
[4] = target: HRgpA-6H (Porphyromonas gingivalis) (UniProt P28784); assay: ELISA, FASEBA screening, coated HRgpA-6H; variant OD over parental WT Fab OD
[5] = target: HRgpA-6H (Porphyromonas gingivalis) (UniProt P28784); assay: ELISA, FASEBA screening, coated HRgpA-6H 0.0625 ug/ml

B1: KB001 mouse Fab variant VL A56H (Fab, V domains shown)
VH: EVQLKQSGPGLVAPSQSLSITCTVSGFSLSIYSVHWVRQPPGKGLEWLGMIWGGGSSDYNSALKSRLSISKDNSKSQVFLKMNSLQTDDTAMYYCARNGNFYAMDYWGQGTSVTVSS
VL: QIVLTQSPAIMSASLGERVTMTCTASSSVSSSFLHWYQQKPGSSPQLWIYSTSNLHSGVPARFSGSGSGTSYSLTISSMEAEDAATYYCHQYHHSPYIYTFGGGTKLEIK
[1]
  OD450 nm: 0.704, 0.699, 0.759, 0.739 [lines of one column]
[2]
  Ratio OD(Variant)/OD(WT): 0.863, 0.857, 0.931, 0.906 fold [lines of one column]

B2: KB001 mouse Fab variant VL A56Y (Fab, V domains shown)
VH: B1 VH
VL: B1 VL with H56Y
[1]
  OD450 nm: 0.673, 0.712, 0.726, 0.696, 0.698 [lines of one column]
[2]
  Ratio OD(Variant)/OD(WT): 0.825, 0.873, 0.89, 0.853, 0.856 fold [lines of one column]

B3: KB001 mouse Fab variant VL S95K (Fab, V domains shown)
VH: B1 VH
VL: B1 VL with H56A, S95K
[1]
  OD450 nm: 0.841, 0.824, 0.813, 0.79 [lines of one column]
[2]
  Ratio OD(Variant)/OD(WT): 0.916, 0.897, 0.885, 0.86 fold [lines of one column]

B4: KB001 mouse Fab variant VL T100F (Fab, V domains shown)
VH: B1 VH
VL: B1 VL with H56A, T100F
[1]
  OD450 nm: 0.494, 0.492, 0.48, 0.517 [lines of one column]
[2]
  Ratio OD(Variant)/OD(WT): 0.944, 0.94, 0.917, 0.988 fold [lines of one column]

B5: KB001 mouse Fab VH S56V (Fab, V domains shown)
VH: B1 VH with S56V
VL: B1 VL with H56A
[3]
  OD450 nm: 0.761, 0.775, 0.777, 0.76 [lines of one column]
  Ratio OD(Variant)/OD(WT): 0.865, 0.881, 0.883, 0.864 [lines of one column]

B6: KB001 mouse Fab VH S56Q (Fab, V domains shown)
VH: B1 VH with S56Q
VL: B1 VL with H56A
[3]
  OD450 nm: 0.718, 0.764, 0.728, 0.775 [lines of one column]
  Ratio OD(Variant)/OD(WT): 0.816, 0.869, 0.828, 0.881 [lines of one column]

B7: KB001 mouse Fab VH S57E (Fab, V domains shown)
VH: B1 VH with S57E
VL: B1 VL with H56A
[3]
  OD450 nm: 0.777, 0.781, 0.723, 0.769 [lines of one column]
  Ratio OD(Variant)/OD(WT): 0.883, 0.888, 0.822, 0.874 [lines of one column]

B8: KB001 mouse Fab VH S57P (Fab, V domains shown)
VH: B1 VH with S57P
VL: B1 VL with H56A
[3]
  OD450 nm: 0.789, 0.801, 0.747, 0.724 [lines of one column]
  Ratio OD(Variant)/OD(WT): 0.897, 0.911, 0.849, 0.823 [lines of one column]

B9: KB001 mouse Fab VH Y59L (Fab, V domains shown)
VH: B1 VH with Y59L
VL: B1 VL with H56A
[3]
  OD450 nm: 0.758, 0.775, 0.752, 0.691 [lines of one column]
  Ratio OD(Variant)/OD(WT): 0.958, 0.98, 0.951, 0.874 [lines of one column]

B10: KB001 mouse Fab VH A62T (Fab, V domains shown)
VH: B1 VH with A62T
VL: B1 VL with H56A
[3]
  OD450 nm: 0.839, 0.812, 0.782, 0.827, 0.856 [lines of one column]
  Ratio OD(Variant)/OD(WT): 0.96, 0.929, 0.895, 0.946, 0.979 [lines of one column]

B11: KB001 parental mouse Fab FASEBA variant VH N100D (Fab, V domains shown)
VH: B1 VH with N100D
VL: B1 VL with H56A
[4]
  Ratio OD(Variant)/OD(WT): 0.968, 0.926, 0.993, 0.994 [lines of one column]
[5]
  OD450 nm: 0.82, 0.784, 0.841, 0.842 [lines of one column]

B12: KB001 parental mouse Fab FASEBA variant VH F101Y (Fab, V domains shown)
VH: B1 VH with F101Y
VL: B1 VL with H56A
[4]
  Ratio OD(Variant)/OD(WT): 0.815, 0.848, 0.871, 0.842, 0.864 [lines of one column]
[5]
  OD450 nm: 0.69, 0.718, 0.738, 0.713, 0.732 [lines of one column]

B13: KB001 parental mouse Fab FASEBA variant VH Y106E (Fab, V domains shown)
VH: B1 VH with Y106E
VL: B1 VL with H56A
[4]
  Ratio OD(Variant)/OD(WT): 0.893, 0.917, 0.938, 0.892 [lines of one column]
[5]
  OD450 nm: 0.687, 0.705, 0.721, 0.686 [lines of one column]
